Measurements reported in the supplement of paper PMC6531468.
The other results are listed elsewhere or left out. Read counts after selection give these values, which scatter widely. Each score is taken over the longer molecules that contain the sequence shown.

Each sequence was assayed on IMP3 RRM1-2 (assay: 6-mer SELEX enrichment z-score vs GST control; IMP3 is the RNA-binding protein IGF2BP3; higher = more enriched by binding). Conditions: construct: RRM1-2 (1-163); SELEX round: R2.
Description: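 SELEX-seq with GST-tagged IMP3 RRM1-2 (Met1-Asn163) and an N40 RNA pool, round 2. 6-mer enrichment z-score normalised to GST SELEX. RNA written as DNA (T = U).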

IMP3 RRM1-2, sequence (chain, as listed by the source): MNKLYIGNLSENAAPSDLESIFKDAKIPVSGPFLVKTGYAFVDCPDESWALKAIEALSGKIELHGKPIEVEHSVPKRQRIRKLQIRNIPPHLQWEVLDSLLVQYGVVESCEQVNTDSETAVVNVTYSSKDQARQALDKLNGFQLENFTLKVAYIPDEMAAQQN

Row | Sequence | 6-mer SELEX enrichment z-score
1 | TCTCGA | 0.482
2 | GTACGC | -0.039
3 | CCCATG | -0.575
4 | AGGTGT | 0.271
5 | GCTATT | 0.371
6 | TTATAT | 0.329
7 | CTTAAA | -0.862
8 | ACAATT | 0.333
9 | GGGCAT | 0.463
10 | TAGAAA | -1.14
11 | GGCCCC | -0.376
12 | TGTACT | 0.136
13 | CCTGGT | 0.105
14 | CGTGAA | -0.971
15 | GCCGGA | -0.791
16 | AGAGTA | -0.384
17 | AGTAAG | -0.391
18 | GAACCA | -0.3
19 | CCCCCC | -0.631
20 | ACGGGG | -0.463

Row | Sequence | 6-mer SELEX enrichment z-score
21 | AAGGGA | -0.817
22 | AACACC | 0.285
23 | AGAGCT | -0.021
24 | TTGGAC | 0.036
25 | AATGTA | -0.502
26 | GTCGGA | 0.216
27 | TGTCCC | -0.219
28 | TTTGTA | 0.229
29 | ATTTCG | 0.21
30 | GATTTA | -0.302
31 | TCTCCG | 0.073
32 | TCTCTA | 0.32
33 | CCCTCA | 0.744
34 | TATGCG | 0.022
35 | CACCAC | 1.82
36 | ACCCCG | -1.03
37 | CATGGT | 0.552
38 | GTGAGC | -0.212
39 | GATCTA | -0.134
40 | GGACCT | -0.424
